SMILES strings stand for the structures. Out of some 52,000 compounds screened, about 4,300 (8.3%) were called active. No stated cut-off is given here; in the data, active means survival mostly below about 52% (no sharp cut-off); inactive means mostly above about 56%. The list shows a part of the results.

The experiment relates to DeltatarO mutant. As to the kind of experiment: growth inhibition of S. aureus wild type versus tarO mutant, primary screen, teichoic acid synthesis inhibitors, RN4220, OD600 (AID 463173). As to conditions: OD600, 18 h, active compounds read low, screened at 18.75 µg/mL (by protocol).
As for `CCOC(=O)c1ccc(NC(=O)c2csc3c2CCCCC3)cc1`, the survival was active: 39%. In the case of `CCOc1ccc(NC(=O)Cn2cc(C(=O)c3ccc(C)c(C)c3)c(=O)c3cc(OC)c(OC)cc32)cc1` it was inactive: 95%; in that of `Cc1noc(C)c1S(=O)(=O)N(CC(=O)NCc1ccccc1Cl)c1ccc(C(C)C)cc1`, inactive: 88%; in that of `O=C(Nc1ccc(F)cc1F)c1c2c(nc3ccccc13)C(=O)N(C1CCCCC1)C2`, inactive: 81%. In the case of `O=C(NCc1cccs1)C1CCN(C(=O)N2CCOc3ccccc32)CC1` it was inactive: 107%. Then `O=C(CSc1nc2c([nH]c3ccccc32)c(=O)n1-c1ccccc1)c1ccccc1`, with inactive: 77%; and `COc1ccc(OC)c(NC(=O)c2ccc(CSc3nnnn3C)cc2)c1`, with inactive: 101%.

For the molecule `O=C(Nc1c(-c2ccccc2)nc2ccccn12)c1ccc(Br)cc1`, the survival was active: 31%. Consider `COc1ccc(Cn2ccnc2SCC(=O)NCc2ccccc2)cc1`, for which the survival was inactive: 90%. Then `CCC1CCCCN1C(=O)c1nn(-c2ccc(C)cc2)c(=O)c2c1c1ccccc1n2C` (configuration not stated), with inactive: 97%; and `CCOc1ccc(CCNC(=O)c2cnc3sc(N4CCOCC4)nn3c2=O)cc1`, with inactive: 67%.

Turning to `CCOc1ccc(C2C(=O)N(C3CCCCCC3)CC(=O)N2CCc2ccccc2)cc1OC` (configuration not stated), the survival was inactive: 88%. Regarding `COC(=O)CSc1nnc2n1C(C)(C)Cc1ccccc1-2`, the survival is inactive: 103%.

Take `COc1ccccc1-c1ccnc2[nH]n(-c3ccccc3)c(=O)c12`: the survival was inactive: 64%.

In the case of `CCOc1ccc(C(=O)Nc2ccc(S(=O)(=O)N3CCCCC3c3cccnc3)cc2)cc1` (configuration not stated), the survival is inactive: 73%. Regarding `Cc1cccc(N2CCN(c3nc4ccccc4c(=O)n3-c3ccc(Cl)cc3)CC2)c1C`, the survival was inactive: 78%.

Consider `Cc1ccc(C)c(S(=O)(=O)NCC(c2ccco2)S(=O)(=O)c2ccc(F)cc2)c1` (configuration not stated), for which the survival was inactive: 124%. `COc1cccc(C2C3=C(CCCC3=O)N(C)C3=C2C(=O)CCC3)c1`: the survival was inactive: 85%. Then `Cc1cccc(C=Nc2ccc(-c3nc4ccccc4o3)cc2)c1O`, with inactive: 99%. With `COc1ccc(CN2COc3ccc4c(-c5ccc(OC)cc5)cc(=O)oc4c3C2)cc1`, the survival was inactive: 65%. Regarding `CC(=O)Nc1ccc(Nc2ccccc2)cc1`, the survival was inactive: 61%. Regarding `CCc1ccc(-n2nc(C)c3c(C(=O)NCCc4ccc(OC)c(OC)c4)cc(C)nc32)cc1`, the survival is inactive: 81%. In the case of `O=c1[nH]ncc(NCCc2ccccc2)c1Cl`, the survival is inactive: 101%.

Consider `COc1ccc(CNC(=O)Cn2ncn3nc(-c4cccs4)cc3c2=O)cc1`, for which the survival is inactive: 70%. Take `Cc1ccc(-c2nc(S(=O)(=O)c3ccc(C)cc3)c(N3CCN(c4ccccc4)CC3)o2)cc1`: the survival is inactive: 97%. As for `Cc1ccc(C)c(N2CCN(CCCNC(=O)Cn3ncc4c([nH]c5ccccc54)c3=O)CC2)c1`, the survival was inactive: 94%. With `COc1ccc2c(=O)c(NC(=O)NCCCN3CCCC3=O)c[nH]c2c1`, the survival was inactive: 93%. With `COc1ccc(N2CCN(S(=O)(=O)CCNC(=O)c3ccc(C(F)(F)F)cc3)CC2)cc1`, the survival was inactive: 99%.

With `CCOC(=O)c1cc(OC(=O)c2ccc(Cl)cc2)n(-c2ccccc2)n1`, the survival is active: 85%. For the molecule `Cc1ccc(N(CC(=O)N2CCN(c3ccc(Cl)cc3)CC2)S(=O)(=O)c2c(C)noc2C)cc1`, the survival is inactive: 64%. Regarding `COc1ccc(-c2nn(CC(=O)Nc3ccccc3F)c3c2cnc2ccc(F)cc23)cc1`, the survival is inactive: 83%. On to `COc1ccc(C2C(=O)N(C3CCCCC3)CC(=O)N2Cc2ccccc2Cl)cc1OC` (configuration not stated), for which the survival is inactive: 117%. In the case of `COc1ccccc1N(CC(=O)Nc1ccccc1F)S(C)(=O)=O` it was inactive: 73%.

As for `CCCCN(CCCC)CCNC(=O)CN1C(=O)CSc2ccc(S(=O)(=O)N3CCCCC3)cc21`, the survival is inactive: 94%. In the case of `Cc1cccc(CN2C(=O)CC(c3ccc(Cl)cc3)c3c(C)nn(-c4nc(C)cc(C)n4)c32)c1` (configuration not stated), the survival is inactive: 72%. Then `COc1ccc(C2NC(=O)c3c(sc4c3CCN(C)C4)N2)cc1O` (configuration not stated), with inactive: 51%; and `CCN(CCCNC(=O)c1cc2c(=O)[nH]c3ccc(C)cc3c2s1)c1ccc(C)cc1`, with inactive: 68%; and `CCCNc1nc(NCc2ccccc2OC)c2cnn(C)c2n1`, with inactive: 78%.

In the case of `CCc1ccc(NC(=O)C(CC)n2nnc(C(=O)OC)c2C(=O)OC)cc1` (configuration not stated), the survival is active: -3%. With `CCOc1ccc(-n2nc3cc(C)c(NC(=O)CC)cc3n2)cc1`, the survival was inactive: 73%. As to `Cc1ccc(Cl)cc1N1CCN(S(=O)(=O)c2ccc3[nH]c4c(c3c2)CCCC4)CC1`, the survival is inactive: 72%. As for `COc1ccccc1NC(=O)CN1C(=O)c2cccc3cccc1c23`, the survival was inactive: 62%. With `Cc1cccc(N2CCN(C(=O)C3CCN(S(=O)(=O)c4cn(C)cn4)CC3)CC2)c1C`, the survival is inactive: 92%.

`CC(=O)NC1C(Oc2ccccc2C)OC2COC(C)(C)OC2C1O` (configuration not stated): the survival was inactive: 73%. `CCCCCn1c(=O)[nH]c2cc(C(=O)NCc3ccc(OC)cc3)ccc2c1=O`: the survival is inactive: 71%. Turning to `CCOC(=O)c1ccc(NC(=O)CCS(=O)(=O)c2ccc3c(c2)oc(=O)n3C)cc1`, the survival is inactive: 94%. With `O=C(NCc1ccc2c(c1)OCO2)c1ccc2c(c1)N(Cc1ccc(F)cc1)C(=O)c1ccccc1S2=O` (configuration not stated), the survival is inactive: 95%. Take `Cc1ccc2nc(N(Cc3cccnc3)C(=O)c3ccc4c(c3)OCCO4)sc2c1`: the survival was inactive: 70%. Turning to `CCOCCc1nn2c(=O)cc(COC(=O)c3cccs3)nc2s1`, the survival was inactive: 134%. On to `Cc1ccc(Cl)cc1Nc1nn2c(=O)c3ccc(C(=O)NCc4cccs4)cc3nc2s1`, for which the survival was inactive: 119%. As to `COc1ccccc1NC(=O)C1CCN(S(=O)(=O)c2ccc3c(c2)oc(=O)n3C)CC1`, the survival is inactive: 88%. As to `CCCN1C(=O)c2ccccc2CC1(C)C(=O)NC1CCCCC1` (configuration not stated), the survival is inactive: 101%. In the case of `Cc1ccc(NC(=O)N2CCN(c3nnc(C)c4c(C)n(-c5ccccc5)nc34)CC2)cc1Cl` it was inactive: 94%; in that of `CCOc1ccccc1CNC(=O)c1cnc2sc(N3CCCC3)nn2c1=O`, inactive: 90%; in that of `CCC(CO)Nc1ncnc2c1cnn2-c1ccc(C)cc1` (configuration not stated), active: -5%. With `CCOCCCn1c(SCC(=O)Nc2cccc(OC)c2)nc2ccccc2c1=O`, the survival was inactive: 97%.

In the case of `COc1cccc(C(=O)NCC(=O)NN)c1`, the survival is inactive: 84%.

(Values after PubChem BioAssay AID463173 (ICCB-Longwood Screening Facility, Harvard Medical School, 2010).)
